The source of these data is PubChem BioAssay AID1963831 (Molecular Pharmacology Branch, DTP, NCI, 2024).

This assay deals with 889142-216-R-J1-PDC complex spheroid viability. As to the kind of experiment: Anticancer human tumor 889142-216-R-J1-PDC patient-derived bladder carcinoma cell line growth inhibition [POLQ]. The following applies: for viability, T/C: stronger effect = lower value. The method, then:
Multicellular complex tumor spheroid response to Polymerase (POL) inhibitors (novobiocin, ART-558, RP6685) in combination with a variety of drugs and investigational agents in selected tumor cell lines
The POL inhibitors (novobiocin, ART-558, and RP6685) were evaluated both individually and in combination with standard of care and investigational anticancer small molecules within a complex spheroid model of solid tumors. . Complex spheroids include a stromal component modeled by human endothelial cells (HUVEC) and fibroblasts modeled by human mesenchymal stem cells (MSCs). The concentration ranges selected for each drug and investigational agent were based upon clinically achievable concentrations if the clinical Cmax of the agent was known.
Compounds. The drugs and investigational agents: novobiocin (NSC847541), ART-558 (NSC835418), RP-6685 (NSC848927), peposertib (NSC802822), ceralasertib (NSC780249), elimusertib (NSC800525), camonsertib (NSC841442), AZD-1390 (NSC803789), olaparib (NSC753686), talazoparib (NSC767125), rucaparib (NSC756644), sotorasib (NSC818433), MRTX-1133 (NSC836407), SN-38 (NSC673596), topotecan (NSC609699), epotoside (NSC141540), doxorubicin (NSC123127), gemcitabine (NSC613327), 5-fluorouracil (NSC19893), paclitaxel (NSC125973), vemurafenib (NSC761431), MSA-2 (NSC828583), SN-011 (NSC837082), adavosertib (NSC754352), prexasertib (NSC758257), carboplatin (NSC241240) and oxaliplatin (NSC266046), were obtained from the National Cancer Institute (NCI) Developmental Therapeutics Program Chemical Repository (21). The FDA-approved anticancer drug set is available from the Developmental Therapeutics Program at https://dtp.cancer.gov/organization/dscb/obtaining/. […] The stock solutions were prepared in dimethyl sulfoxide (DMSO, Sigma-Aldrich, St. Louis, MO, cat. D2650), except for the platinum compounds which were prepared in saline (Quality Biological, Gaithersburg, MD, cat. 114-055-101), at 800-fold the tested concentration and stored at -70 degrees C prior to their use. All drugs and investigational agents were tested over a range starting from a high concentration at or near the clinical Cmax and decreasing in half-log increments. If the clinical Cmax for an agent had not been determined, the highest concentration tested was 10 microM, except for SN-38, which was tested at a high concentration of 1 microM.
Cell Culture. All cells were maintained in an incubator at 37 degrees C and 5% CO2 with 95% humidity. The PDC lines were cultured according to standard operating procedures established by the NCI PDMR (https://pdmr.cancer.gov). Table 3 of the manuscript, lists the cell lines along with the number of the three cell types plated to form the mct-spheroids and media for tumor cell growth. After thawing, all PDC lines, except 997537-175-T-J1-PDC and 415267-285-R-J2-PDC, were cultured in Matrigel-coated flasks prepared with a working solution of 1X Ham's F-12 nutrient mix, without supplementation (Thermo Fisher Scientific, cat. 11765054), 100 U/mL penicillin-streptomycin (Thermo Fisher Scientific, cat. 15140122), and 2.5% Matrigel (Corning Inc., Corning, NY, cat. 354248) for the first three passages. The two PDC lines 997537-175-T-J1-PDC and 415267-285-R-J2-PDC were cultured on uncoated flasks. The 857933-349-R-J2-PDC line was cultured in 6C/Colon 1B media containing advanced DMEM/F-12 (Thermo Fisher Scientific, cat. 12634028), 10 mM HEPES (Thermo Fisher Scientific, cat. 15630080), 1X GlutaMAX supplement (Thermo Fisher Scientific, cat. 35050061), 0.1 mg/mL primocin (InvivoGen, San Diego, CA, cat. ant-pm-2), 10% defined fetal bovine serum, heat inactivated (HyClone Laboratories Inc., Logan, UT, cat. SH30070.03HI), 50% L-WRN conditioned media (ATCC, cat. CRL-3276), 1.25 mM N-Acetyl-L-cysteine (Sigma-Aldrich, cat. A9165), 10 mM nicotinamide (Sigma-Aldrich, cat. N0636), 1X B-27 supplement (Thermo Fisher Scientific, cat. 17504044), 1X N-2 supplement (Thermo Fisher Scientific, cat. […]

A number of entries come with more than one value. The list is limited to them. An entry can have further records. Values given together repeat one measurement in other runs, samples, wells, individuals or studies. Counts like (3×) count equal records among those shown. Bounds are passed on as bounds.
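Also: spheroids exposed to compounds for seven days.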
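For viability, T/C in this document: 100% = DMSO vehicle control viability.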

Take `Cc1cccc(N(C)C(=O)C2C(O)CCN2c2nc(C)cc(C(F)(F)F)c2C#N)c1` (centres undefined): the viability, T/C reads like this: (compound alone 0.0316 µM) 102 (2×), 119, 95.8, 94.3 (2×), 103, 93.9, 89, 76.9, 84.6, 90.5, 90.3%; (compound alone 0.1 µM) 89.4, 97.2, 103, 101, 89.8, 111, 97.3, 93.5, 97.4, 89.1, 123, 102, 88.9%; (compound alone 0.316 µM) 111, 110, 83.7, 107, 100, 94, 105, 88.5, 101, 91.8, 74, 88.9, 83.5%; (compound alone 1 µM) 87.4, 102, 88.9, 105, 80.1, 94.8 (2×), 93, 90.7, 72.7, 104, 93.5, 77.7%; (compound alone 10 µM) 91.9, 89.3, 87.2, 77.7, 75, 81.2, 84.3, 79.2, 88.3, 83.2, 80.1, 98.7, 103%.
With `CC(=O)O[C@H]1C(=O)[C@@]2(C)[C@H]([C@H](OC(=O)c3ccccc3)[C@]3(O)C[C@H](OC(=O)[C@H](O)[C@@H](NC(=O)c4ccccc4)c4ccccc4)C(C)=C1C3(C)C)[C@]1(OC(C)=O)CO[C@@H]1C[C@@H]2O`, the IC50 (compound alone) is < 9.49 nM, 423 nM, > 3 µM.
As to `COC1C(OC(N)=O)C(O)C(Oc2ccc3c(O)c(NC(=O)c4ccc(O)c(CC=C(C)C)c4)c(=O)oc3c2C)OC1(C)C` (centres undefined), the viability, T/C was 113, 105, 108, 110 (2×), 112, 92.5, 103, 90.3, 101, 115, 87% (compound alone 0.1 µM); 97.1, 110, 92.2, 102, 111, 104, 101 (2×), 93.6, 85.7, 90.9, 88.4% (compound alone 1 µM); 88.9, 97.6, 107 (2×), 98.9, 92.9, 110, 108, 93.2, 94.2, 84, 94.8% (compound alone 3.16 µM); 80.8, 109, 98.7, 84.1, 88.5, 97, 98.2, 96.8, 108, 97.8, 105, 95.4% (compound alone 10 µM).
On to `Nc1ccc(C#CCN(C(=O)Cc2ncc(C(F)(F)F)cc2C(F)(F)F)c2ccc(F)cc2)nn1`, for which the viability, T/C (compound alone 0.0316 µM) was 86.2, 85.6, 103, 96.9, 88.1, 78.5, 98.5, 89.4, 86.8, 92.1, 105, 93.2%; the viability, T/C (compound alone 0.316 µM) was 103, 91.5, 94.2 (2×), 97.5, 120, 104 (3×), 111, 79.6, 92, 101%; the viability, T/C (compound alone 1 µM) is 107 (2×), 89.9, 101, 114, 94.7, 95.4, 108, 98.3, 115, 106, 91.6, 90.5%; the viability, T/C (compound alone 3.16 µM) is 81.6, 91.2, 134, 119 (2×), 105 (2×), 118, 97, 81.7, 101, 99.8, 111%.

The IC50 is the concentration needed to halve the response being measured.
